Read counts are not given, so values of variants with three or more changes are uncertain.
B1: CPEB3 Ribozyme (parent)
chain: UAACAGGGGGCCACAGCAGAAGCGUUCACGUCGCAGCCCCUGUCAGAUUCUGGUGAAUCUGCGAAUUCUGCUGUAUAUCUC

Variants of: B1
Assay: self-cleavage, relative activity (ratio to wild type); higher = more cleavage; in vitro, sequencing
How it was run: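 For each CPEB3 ribozyme variant, relative activity is its cleaved/total read fraction divided by the unmutated ribozyme's. Barcoded error-prone PCR libraries were transcribed by T7 RNA polymerase (5 hours, 37°C) and held in DNase I for 15 min before an EDTA stop, with cleavage occurring throughout. Template-switching reverse transcription and Illumina sequencing were used to read the RNAs. A 5-read minimum applied, and results are the mean of three batches.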
Variant G10A A20G A47U U67A U80C has a self-cleavage of 0.07. With G10A A20G A75U the self-cleavage was 0.34. In the case of G10A A20G U25C, the self-cleavage is reported as 0.31. In the case of G10A A20G U43A U48C G61A U72C, the self-cleavage is reported as 0.03. Variant G10A A20U U26G A45G U76A has a self-cleavage of 0.19. G10A A21G A28U U49A U69A showed a self-cleavage of 0.22. G10A A21G A35C U48C G52C U54G gave a self-cleavage of 0.03. With G10A A21G A47G C50U U80A the self-cleavage was 0.09. Variant G10A A21G A56G U80A has a self-cleavage of 0.2. G10A A21G C40A U41A U48C U60C gave a self-cleavage of 0.03. G10A A21G U26C U60C U69A gave a self-cleavage of 0.05. G10A A21G U54C U67C U69A U74C showed a self-cleavage of 0.09. Work on G10A A21U A35U U48C yielded a self-cleavage of 0.08. In the case of G10A A28G A35U A64G U72C U76C, the self-cleavage is reported as 0.07. With G10A A28G A56G U67C the self-cleavage was 0.07. G10A A28G U41C A56G U72C A77U gave a self-cleavage of 0.05. For G10A A28G U60A U74C, the self-cleavage was 0.05. For G10A A28G U72C U76C, the self-cleavage was 0.1. In the case of G10A A28G U76G, the self-cleavage is reported as 0.05. In the case of G10A A28U A35G, the self-cleavage is reported as 0.65. With G10A A35C U41C U43C U80C the self-cleavage was 0.29. For G10A A35G U41C, the self-cleavage was 0.83. G10A A35G U69C showed a self-cleavage of 0.14. Variant G10A A35U U41C U54C A65G U80A has a self-cleavage of 0.04. With G10A A45C A56G A57U the self-cleavage was 0.12. With G10A A45U U60A U67C U78A the self-cleavage was 0.11. Variant G10A C11A A15G U26C G33A A56G has a self-cleavage of 0.03. Variant G10A C11A U31G C34A C38U G46A U48G has a self-cleavage of 0.12. With G10A C11G U80C the self-cleavage was 0.08. Variant G10A C11U U31C G36U A57G has a self-cleavage of 0.03. Work on G10A C12U A45U U76C yielded a self-cleavage of 0.06. Variant G10A C12U U48C U69A has a self-cleavage of 0.05. In the case of G10A C14A C29U A75U, the self-cleavage is reported as 0.04. G10A C14U U69C G70U showed a self-cleavage of 0.16. In the case of G10A C27U A35G U66C, the self-cleavage is reported as 0.6. Variant G10A C29U A35U A64G G70A U78C has a self-cleavage of 0.03. Variant G10A C29U A56G has a self-cleavage of 0.18. In the case of G10A C29U A77G, the self-cleavage is reported as 0.17. With G10A C34G U54C U60C G70C the self-cleavage was 0.06. In the case of G10A C39U U51A U58A U72C, the self-cleavage is reported as 0.06. For G10A C40U U49C, the self-cleavage was 0.06. G10A C40U U51A A64U showed a self-cleavage of 0.05. With G10A G16C A45G U51C the self-cleavage was 0.14. G10A G24A U54G U60A U78C showed a self-cleavage of 0.05. Work on G10A G24A U72A yielded a self-cleavage of 0.17. With G10A G30A U31C A47G A65U U72A U78C the self-cleavage was 0.06. Work on G10A G33A A47G U72C U80C yielded a self-cleavage of 0.11. Work on G10A G33A A47U U66C yielded a self-cleavage of 0.11. For G10A U25A U43C A45U U54A, the self-cleavage was 0.05. With G10A U25C U76A the self-cleavage was 0.07. G10A U26C A65G showed a self-cleavage of 0.26. Work on G10A U26C C37U yielded a self-cleavage of 0.16. G10A U26C U43C A57G A64G C68A gave a self-cleavage of 0.08. G10A U26C U49C U51C A75U showed a self-cleavage of 0.07. In the case of G10A U31A A45G U69A, the self-cleavage is reported as 0.11. With G10A U31A A77U the self-cleavage was 0.23. Variant G10A U31C A35U U60C A64G has a self-cleavage of 0.09. In the case of G10A U41A G46A U51A A57G U60C A64G, the self-cleavage is reported as 0.04. Variant G10A U41A U43A U72A has a self-cleavage of 0.04. For G10A U41C U43C, the self-cleavage was 0.06. For G10A U41C U58C U72C, the self-cleavage was 0.08. With G10A U43A A56G A77G U80C the self-cleavage was 0.06. G10A U48C A64U gave a self-cleavage of 0.05. In the case of G10A U48C A65C U67C A77U, the self-cleavage is reported as 0.03. Variant G10A U48C U49C has a self-cleavage of 0.17. In the case of G10A U48C U78C, the self-cleavage is reported as 0.12. G10A U49A A56G G70C gave a self-cleavage of 0.12. Work on G10A U51A A57G A64G yielded a self-cleavage of 0.11. Variant G10A U51C U60C G70A U78C has a self-cleavage of 0.26. Work on G10A U54C U66C U78A yielded a self-cleavage of 0.13. With G10A U60A A64G U72C the self-cleavage was 0.36. Work on G10A U69C U72C yielded a self-cleavage of 0.14. Variant G10C A13U A65G has a self-cleavage of 0.05. With G10C A15G A21G G63U A64C U67G U80C the self-cleavage was 0.05. Variant G10C A15G G63A has a self-cleavage of 0.08. Work on G10C A20C A45U A56G C59U U67C yielded a self-cleavage of 0.02. Variant G10C A20G U48C U60A U76A has a self-cleavage of 0.14. Work on G10C A21G A56G yielded a self-cleavage of 0.08. G10C A21G U31A gave a self-cleavage of 0.19. Variant G10C A35U U80C has a self-cleavage of 0.06. Variant G10C A65G A75G has a self-cleavage of 0.14. Variant G10C C12A A13G A57G A77G has a self-cleavage of 0.09. G10C C14U A21G U51A C59G A77U gave a self-cleavage of 0.17.

— the RNAGym collection of RNA variant scans (doi:10.1093/nar/gkz1192)
